The target of experiment [1] is T1, His6-Tsa2 (S. cerevisiae, UniProt Q04120 1-196).
T1 construct: Tsa2, Prx1/AhpC-type peroxiredoxin of Saccharomyces cerevisiae; TSA2 from pET15b/His6-TSA2; calculated mass of His6-Tsa2 23.8 kDa; also called His6-tagged Tsa2; His-Tsa2; source: E. coli SHuffle T7 Express, purified (Ni-NTA) from pET15b; or coexpressed with Strep-Tsa1 / Strep-Tsa1ΔCR from pCOLADuet and tandem purified (Ni-NTA, StrepTactin); not shown: His6, N-terminal, kept
T1 sequence (looked up): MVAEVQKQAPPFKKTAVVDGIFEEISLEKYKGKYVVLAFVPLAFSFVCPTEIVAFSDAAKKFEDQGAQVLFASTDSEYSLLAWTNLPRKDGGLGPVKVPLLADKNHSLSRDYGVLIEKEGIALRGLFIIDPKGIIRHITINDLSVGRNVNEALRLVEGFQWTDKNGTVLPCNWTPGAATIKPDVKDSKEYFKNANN
As to the kind of experiment: condition: only individually purified proteins mixed at a 1:1 molar ratio (not coexpressed); pull-down; individually purified proteins mixed at a 1:1 molar ratio; tandem-affinity purification with Ni-NTA agarose followed by StrepTactin agarose beads; both purified.

In experiment [2] the target is T1, His6-Tsa2. As to the kind of experiment: pull-down; both genes coexpressed from one pCOLADuet plasmid in E. coli; tandem-affinity purification Ni-NTA then StrepTactin, or vice versa; eluates on reducing SDS-PAGE, western blot (semiquantitative, calibrated with individually purified proteins).
Experiment [3] addresses T2, roGFP2-Tsa2 (S. cerevisiae) (UniProt Q04120).
T2 sequence: T1 sequence (looked up)
As to the kind of experiment: native gel or EMSA; clear native PAGE (3-12%) of yeast lysates, imaged for GFP fluorescence; roGFP2 fusions expressed from the genomic loci; cells untreated or treated with 1 mM H2O2 for the indicated times; lysis with 20 mM NEM.

For experiment [4], the target named is T3, roGFP2-Tsa1 (S. cerevisiae) (UniProt P34760).
T3 sequence: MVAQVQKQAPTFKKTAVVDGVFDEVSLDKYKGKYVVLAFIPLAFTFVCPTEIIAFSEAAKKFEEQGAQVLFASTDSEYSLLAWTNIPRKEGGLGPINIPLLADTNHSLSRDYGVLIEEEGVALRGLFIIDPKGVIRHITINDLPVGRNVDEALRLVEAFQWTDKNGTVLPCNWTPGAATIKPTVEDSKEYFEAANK
The description is as above.

Experiment [5] addresses T1, His6-Tsa2. As to the kind of experiment: pull-down + other: nonreducing SDS-PAGE of disulfide-linked dimers; coexpressed in E. coli, tandem-affinity copurification; samples treated with 10 mM NEM, nonreducing SDS-PAGE, western blot.

These are yes or no findings as the source states them, for the method shown. For some assays here: Binding seen in cells or lysates may run through a third protein. Some binding calls cover weakened binding; strength is not graded here. Tags and fused reporters may be left off the sequences shown.

B1: Strep-Tsa1 (enzyme, S. cerevisiae, UniProt P34760 1-196, looked up)
chain: T3 sequence
notes: Tsa1, Prx1/AhpC-type peroxiredoxin of Saccharomyces cerevisiae; TSA1 subcloned from pET15b/His-TSA1; calculated mass of Strep-Tsa1 22.9 kDa; Dimer-decamer equilibrium; also called Strep-tagged Tsa1; Tsa1 homo-oligomer; source: E. coli SHuffle T7 Express, purified (StrepTactin) from pET45b; or coexpressed with His6-Tsa2 / His6-Tsa2-EPEA from pCOLADuet-1 and tandem purified (Ni-NTA, StrepTactin); …
Consider B1, for which the binding result with His6-Tsa2 [1] is reported as “no binding”; with His6-Tsa2 [2], “binds”.

B2: Tsa1 (untagged, in yeast) (enzyme, UniProt P34760 1-196)
chain: T3 sequence
Regarding B2, the binding entry in experiment [3] was “binds”.

B3: Tsa2 (untagged, in yeast) (enzyme, UniProt Q04120 1-196)
chain: T1 sequence (looked up)
Consider B3, for which the binding entry in experiment [4] is recorded as “binds”.

B4: His6-Tsa2 (enzyme, UniProt Q04120 1-196)
chain: T1 sequence (looked up)
As for B4, the binding entry in the experiment with His6-Tsa2 [5] is “binds”.

For the origin of these results see paper PMC13038412, “Hetero-oligomerization drives structural plasticity of eukaryotic peroxiredoxins” (Nature Chemical Biology, 2026).
